Measurements taken from the supplement of paper PMC3724861.
The list shows a part of the results.

system: T1, Caupolican (Caup) homeodomain DNA-binding domain; experiment: PBM E-score (8-mer, recovered from the published 9-mer minima) (E-score (dimensionless, -0.5 to 0.5)); Drosophila protein; higher = stronger relative binding preference, active = 0.31 or more
T1 sequence: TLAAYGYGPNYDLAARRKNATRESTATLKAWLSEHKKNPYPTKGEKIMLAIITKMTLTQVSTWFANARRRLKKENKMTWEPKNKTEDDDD
Summary of the method: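 Caup's homeodomain DNA-binding domain (residues 214-303) was made by in vitro transcription and translation and applied at 100 nM to custom-designed protein binding microarrays. Each value is an enrichment score that gives relative binding preference for a short DNA word, with higher meaning stronger. The 8-mer values were recovered from published 9-mer scores, each of which was the minimum of its two constituent 8-mer scores. A cutoff of 0.31 marks candidate sites.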

Row | Sequence | PBM E-score
1 | CACGGGAG | inactive: -0.0794
2 | CAGCCGAA | inactive: -0.0791
3 | CGCCGGTA | inactive: -0.0479
4 | AATATCGA | inactive: 0.15
5 | GTTAAGTA | inactive: 0.147
6 | CGCATCCC | inactive: -0.161
7 | CTCATATA | inactive: 0.113
8 | ACGCCGAA | inactive: -0.127
9 | ACAAACGC | inactive: 0.0263
10 | CGAACCCG | inactive: -0.15
11 | CAATAGGA | inactive: 0.0513
12 | AACATTAC | inactive: 0.244
13 | ACCGATAT | inactive: 0.0303
14 | CGAAACCA | ≥ 0.126
15 | CATCAATA | inactive: 0.164
16 | CTCGGTAA | inactive: -0.0579
17 | AGATATCT | inactive: 0.0618
18 | AAGAGACT | inactive: -0.0798
19 | CCATTCGG | inactive: 0.00964
20 | AACAACAC | active: 0.392
21 | AAGCTTAT | ≥ 0.0779
22 | ACTAGGGA | inactive: -0.0769
23 | TAGTAATA | inactive: 0.28
24 | AGATGGGC | inactive: -0.186
25 | GCAAGGAA | inactive: 0.00778

Row | Sequence | PBM E-score
26 | AGGCTTAG | inactive: -0.108
27 | AATTAAAC | inactive: 0.223
28 | CACGAATA | inactive: 0.187
29 | CAAAGTAC | inactive: 0.172
30 | AGATTCTA | inactive: 0.0842
31 | GCGTCTAC | inactive: -0.0987
32 | ACCCGTAT | inactive: 0.0244
33 | AGCGGGCG | inactive: -0.261
34 | CAGCCATC | inactive: -0.0335
35 | ATACTACG | inactive: 0.0679
36 | CTTATTGA | inactive: 0.0828
37 | GACCCAGC | inactive: -0.162
38 | CTATCCGC | inactive: -0.14
39 | ACCACTTA | inactive: 0.0907
40 | GCAGGAGA | inactive: -0.128
41 | CAGGTCGG | inactive: -0.0619
42 | ATGCGGCA | inactive: -0.0769
43 | GCCAATCC | inactive: -0.167
44 | CTCAGGGA | inactive: -0.163
45 | CCTGCTCG | inactive: -0.134
46 | CTCGACGA | inactive: -0.0765
47 | AAAGTAGA | inactive: 0.0401
48 | GCACTGGA | inactive: -0.136
49 | GATCGCTA | inactive: -0.0372
50 | CTAAGGGC | inactive: -0.144

Row | Sequence | PBM E-score
51 | AGAGTGCC | inactive: -0.179
52 | GCAATTTA | inactive: 0.149
53 | CGGCGGAG | inactive: -0.233
54 | CCATCCGA | inactive: 0.022
55 | ATTTGACA | active: 0.347
56 | ATAATCAA | inactive: 0.0548
57 | GTCTAATA | inactive: 0.105
58 | TCGGGAAA | inactive: 0.0245
59 | TATGATAA | inactive: 0.207
60 | AAACGCAT | inactive: 0.0276
61 | CCCGACTA | inactive: -0.11
62 | CGGATAAA | inactive: 0.0379
63 | CGCTCTAC | inactive: 0.0269
64 | ACTTTACA | inactive: 0.272
65 | TATTGGAA | inactive: 0.124
66 | ATTGCCGG | inactive: -0.0964
67 | CAGCGCAC | inactive: -0.0973
68 | AGGCTCGG | inactive: -0.114
69 | GTCTGATA | inactive: 0.189
70 | AGAAACCG | inactive: -0.0762
71 | GCAGGGGC | inactive: -0.202
72 | TAAAATCA | inactive: 0.13
73 | CGACCGCC | inactive: -0.111
74 | CGGGCACA | inactive: -0.102
75 | CTCCAGGA | inactive: -0.203

Row | Sequence | PBM E-score
76 | GCCGATAA | inactive: -0.0402
77 | AACATGTT | active: 0.45
78 | CACGGAGA | inactive: -0.0466
79 | CGAATATA | inactive: 0.0542
80 | CGATCAGA | inactive: -0.0486
81 | AGTACTTG | inactive: 0.123
82 | TAATTGGA | inactive: 0.0559
83 | AAGTGATA | inactive: 0.0619
84 | AAGTTTCG | inactive: 0.037
85 | ACCTCAAT | ≥ 0.0676
86 | CCAAACCC | inactive: -0.1
87 | AACAGGCC | inactive: -0.0603
88 | ATGTAATG | active: 0.37
89 | TTCAGAAA | inactive: -0.0521
90 | CAAGCCTC | inactive: -0.106
91 | GGAGCAAA | inactive: -0.0721
92 | ACGGCGGG | inactive: -0.185
93 | CGGGGCGC | inactive: -0.306
94 | ATGCGCAG | inactive: -0.135
95 | ATAGGATA | inactive: 0.122
96 | AGTCCCTA | inactive: -0.136
97 | GGGTCAAA | inactive: -0.108
98 | GTTTCCAA | inactive: 0.0825
99 | CTAACAAC | inactive: 0.278
100 | GACTAAAA | inactive: -0.019

Row | Sequence | PBM E-score
101 | AACTTACC | inactive: -0.0127
102 | ACGTATAG | inactive: 0.108
103 | GCTTCCAA | inactive: -0.0538
104 | AGCGGCGA | inactive: -0.149
105 | GCTTTGCC | inactive: -0.189
106 | AGTCAATA | inactive: 0.0895
107 | AAATTCTA | inactive: 0.126
108 | ACGGATCA | inactive: 0.0735
109 | CCGGTATA | inactive: 0.111
110 | TCCCCACA | inactive: -0.133
111 | GCAAAGTA | inactive: 0.0214
112 | AACCTGGG | inactive: -0.119
113 | TTAACTAA | inactive: 0.169
114 | AAGGTTGT | inactive: 0.278
115 | CCCGCACA | inactive: -0.146
116 | AGTGAGGA | inactive: -0.0422
117 | AAAAGCCC | inactive: -0.152
118 | GGGTTCTA | inactive: -0.18
119 | AAAGCTTG | inactive: -0.00031
120 | GCGCAGGA | inactive: -0.236
121 | AATACCCT | inactive: -0.0149
122 | CATACGAG | inactive: 0.0982
123 | CTTCTATA | inactive: 0.0409
124 | CCTTACCC | inactive: -0.133
125 | AAAGTCTG | inactive: 0.0248

Row | Sequence | PBM E-score
126 | CTCCGGTA | inactive: -0.0601
127 | CTGTTCAC | inactive: 0.147
128 | CATCAATG | inactive: 0.122
129 | CACTGACA | inactive: 0.191
130 | TCAGCTCA | inactive: -0.0739
131 | CTCCGCTC | inactive: -0.188
132 | ACACGGCA | inactive: 0.196
133 | ATGCTTCC | inactive: 0.0143
134 | ATTACCCG | inactive: 0.0487
135 | AAGGAATC | inactive: 0.0695
136 | GTTAGCGA | inactive: 0.0994
137 | ACACCTGA | inactive: 0.169
138 | ACAGGCAG | inactive: 0.0868
139 | ACCTTATC | inactive: -0.00398
140 | GCCTTCTA | inactive: -0.229
141 | AGCCTCAA | inactive: -0.153
142 | AAGACGGT | ≥ -0.03
143 | CCGGTGGC | inactive: -0.284
144 | GTTGTGCA | inactive: 0.0605
145 | GTTTTTGA | inactive: 0.084
146 | ACGGCATC | inactive: -0.0217
147 | ACCCAATG | inactive: 0.00581
148 | ATGTACTC | inactive: 0.303
149 | CCCACCCG | inactive: -0.0964
150 | AACTTCGT | inactive: 0.0347

Row | Sequence | PBM E-score
151 | CTGAAAAG | inactive: -0.0538
152 | CAGGACCA | inactive: -0.116
153 | ATCCATGA | inactive: 0.0343
154 | CCGTGGCC | inactive: -0.32
155 | AGCCGAAG | inactive: -0.174
156 | GAGCGTAC | inactive: 0.0018
157 | AGCGATTA | inactive: 0.0554
158 | ATTGCCAC | inactive: 0.0589
159 | GAACGTTC | ≥ 0.0202
160 | CCTTGCAC | inactive: 0.0128
161 | CTGAGCAA | inactive: 0.0176
162 | ATCGTGCC | inactive: -0.0475
163 | TCCAACCA | inactive: -0.042
164 | ATCTAGGG | inactive: 0.0243
165 | GAGTGAAA | inactive: 0.0402
166 | GACGTCTC | inactive: -0.0958
167 | ATTTAGGC | inactive: 0.0503
168 | ACCAAAAA | inactive: 0.0475
169 | AACCAAAC | inactive: -0.0845
170 | AGCACACC | inactive: -0.0258
171 | AGGCTCCC | inactive: -0.236
172 | CAGATCTC | inactive: -0.0544
173 | AATGGGGT | ≥ 0.0023
174 | CTGGAGCC | inactive: -0.202
175 | ACCCCGGT | inactive: -0.137

Row | Sequence | PBM E-score
176 | CCTACAGA | inactive: -0.0403
177 | ATCCTAGG | inactive: -0.0799
178 | AGCGAGAT | inactive: -0.119
179 | CGAGCACG | inactive: -0.067
180 | GCAAACCA | inactive: 0.0628
181 | ATCGCTTC | inactive: -0.0151
182 | CTTAAGGC | inactive: -0.217
183 | ATTTGGGC | inactive: -0.0771
184 | GCCGAGGC | inactive: -0.148
185 | CGTAGTTC | inactive: -0.033
186 | GGTTAAAC | inactive: 0.0743
187 | CAACCACG | inactive: 0.17
188 | GGTTATAA | inactive: 0.118
189 | CTATGCCA | inactive: 0.0515
190 | GCTAAACA | inactive: 0.132
191 | CTGCAGGC | inactive: -0.159
192 | AAAGGCGT | inactive: -0.125
193 | GCCTCAAA | inactive: -0.112
194 | AACCAAGG | inactive: -0.00969
195 | AAGCCTAT | inactive: -0.0364
196 | GAAGCGAC | inactive: -0.0318
197 | ATCGTGGA | inactive: -0.0656
198 | CGAGGATA | inactive: -0.00954
199 | AGAGGGTG | inactive: -0.0938
200 | GCCGCGTA | inactive: -0.184

Row | Sequence | PBM E-score
201 | AACTGGTC | inactive: 0.0358
202 | AGTAGGCC | inactive: -0.0636
203 | CTAGCGGC | inactive: -0.248
204 | GTAGCTAA | inactive: 0.0032
205 | CAGGCAGA | inactive: -0.0719
206 | CATGCCTC | inactive: -0.00058
207 | AGCCTTCG | inactive: -0.183
208 | CATGCTCA | inactive: 0.139
209 | TGCAAGCA | inactive: -0.0266
210 | CGTCATTC | inactive: 0.0425
211 | AGTCGTCG | inactive: -0.112
212 | GTCTGCGA | inactive: -0.0103
213 | AGATGATC | inactive: 0.00803
214 | CCATAGGG | inactive: -0.0973
215 | CTAAGTGC | inactive: -0.0672
216 | ACTGCCCA | ≥ -0.0495
217 | CGTGAAAG | inactive: 0.0327
218 | ATGCGCAA | inactive: -0.0346
219 | ATTATCCC | ≥ 0.12
220 | ACCAGCTA | inactive: 0.0236
221 | AGCAGTTG | inactive: 0.00467
222 | AAACGTGA | inactive: 0.0748
223 | GCTCCCAA | inactive: -0.177
